Publication PMC12820563, “FoxP3 forms a head-to-head dimer in vivo and stabilizes its multimerization on adjacent microsatellites”
Some of the results follow.

Target: T1, MBP-FoxP1dN (Mus musculus, UniProt P58462 326-579)
T1 sequence: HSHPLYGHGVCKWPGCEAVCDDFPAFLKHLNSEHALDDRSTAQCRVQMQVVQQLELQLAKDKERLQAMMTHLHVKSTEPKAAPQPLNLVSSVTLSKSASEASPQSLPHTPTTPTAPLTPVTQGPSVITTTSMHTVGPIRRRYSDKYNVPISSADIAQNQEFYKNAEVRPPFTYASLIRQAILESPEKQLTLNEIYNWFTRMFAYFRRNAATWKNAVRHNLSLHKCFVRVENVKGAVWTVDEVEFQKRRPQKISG
Assay: PD-seq (MBP pull-down with sequencing); 20 mM Tris-HCl pH 7.5, 100 mM NaCl, 1.5 mM MgCl2, 0.4 uM protein, 0.1 uM dsDNA library, 30 min, room temperature, amylose pull-down; high values mean tight binding
Conditions: protein: recombinant; tags: His6-MBP; chain copies: 2; dsDNA, one strand shown
Outline: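 Binding is reads-per-million enrichment of pull-down over input, with replicates pooled. It comes from 30 min room-temperature incubation in Tris pH 7.5 buffer with NaCl and MgCl2 of 0.4 µM His6-MBP-tagged, N-terminally truncated mouse FoxP3 or FoxP1 fragment from E. coli with 0.1 µM Klenow-filled degenerate double-stranded DNA library, followed by amylose resin capture, three washes and Illumina sequencing of the released DNA.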

Sequence	binding signal
GATGATTGTTCTCCCAGCTGATGAATTCTCGGAATCGAGTAAACAAATTTTCCTAATCTTTCTGTTCAAGCGCCATCTAC	0.939 RPM ratio (pull-down/input)
GATGATTGTTCTCCCAGCTGATGAATTATCCTCTTCGAGTAAACAAATTTTCCTAATCTTTCTGTTCAAGCGCCATCTAC	0.975 RPM ratio (pull-down/input)
GATGATTGTTCTCCCAGCTGATGAATTTAATTTGTCGAGTAAACAAATTTTCCTAATCTTTCTGTTCAAGCGCCATCTAC	1.25 RPM ratio (pull-down/input)
GATGATTGTTCTCCCAGCTGATGAATTCTCAACCTCGAGTAAACAAATTTTCCTAATCTTTCTGTTCAAGCGCCATCTAC	0.795 RPM ratio (pull-down/input)
GATGATTGTTCTCCCAGCTGATGAATTCACCTGTTCGAGTAAACAAATTTTCCTAATCTTTCTGTTCAAGCGCCATCTAC	0.849 RPM ratio (pull-down/input)
GATGATTGTTCTCCCAGCTGATGAATTCAGTTAGTCGAGTAAACAAATTTTCCTAATCTTTCTGTTCAAGCGCCATCTAC	0.883 RPM ratio (pull-down/input)
GATGATTGTTCTCCCAGCTGATGAATTTAGACTGTCGAGTAAACAAATTTTCCTAATCTTTCTGTTCAAGCGCCATCTAC	0.976 RPM ratio (pull-down/input)
GATGATTGTTCTCCCAGCTGATGAATTGGCTTAATCGAGTAAACAAATTTTCCTAATCTTTCTGTTCAAGCGCCATCTAC	0.938 RPM ratio (pull-down/input)
GATGATTGTTCTCCCAGCTGATGAATTTGGCGGATCGAGTAAACAAATTTTCCTAATCTTTCTGTTCAAGCGCCATCTAC	0.847 RPM ratio (pull-down/input)
GATGATTGTTCTCCCAGCTGATGAATTCTTATTATCGAGTAAACAAATTTTCCTAATCTTTCTGTTCAAGCGCCATCTAC	1.6 RPM ratio (pull-down/input)
GATGATTGTTCTCCCAGCTGATGAATTGTATGTGTCGAGTAAACAAATTTTCCTAATCTTTCTGTTCAAGCGCCATCTAC	1.37 RPM ratio (pull-down/input)
GATGATTGTTCTCCCAGCTGATGAATTTTCACCATCGAGTAAACAAATTTTCCTAATCTTTCTGTTCAAGCGCCATCTAC	1.03 RPM ratio (pull-down/input)
GATGATTGTTCTCCCAGCTGATGAATTGTATCATTCGAGTAAACAAATTTTCCTAATCTTTCTGTTCAAGCGCCATCTAC	1.26 RPM ratio (pull-down/input)
GATGATTGTTCTCCCAGCTGATGAATTTGATTCCTCGAGTAAACAAATTTTCCTAATCTTTCTGTTCAAGCGCCATCTAC	0.839 RPM ratio (pull-down/input)
GATGATTGTTCTCCCAGCTGATGAATTAGCATGGTCGAGTAAACAAATTTTCCTAATCTTTCTGTTCAAGCGCCATCTAC	0.958 RPM ratio (pull-down/input)
GATGATTGTTCTCCCAGCTGATGAATTAGGTAAGTCGAGTAAACAAATTTTCCTAATCTTTCTGTTCAAGCGCCATCTAC	0.918 RPM ratio (pull-down/input)
GATGATTGTTCTCCCAGCTGATGAATTGAGGTCATCGAGTAAACAAATTTTCCTAATCTTTCTGTTCAAGCGCCATCTAC	0.884 RPM ratio (pull-down/input)
GATGATTGTTCTCCCAGCTGATGAATTCTCATTATCGAGTAAACAAATTTTCCTAATCTTTCTGTTCAAGCGCCATCTAC	0.971 RPM ratio (pull-down/input)
GATGATTGTTCTCCCAGCTGATGAATTCACACGCTCGAGTAAACAAATTTTCCTAATCTTTCTGTTCAAGCGCCATCTAC	0.978 RPM ratio (pull-down/input)
GATGATTGTTCTCCCAGCTGATGAATTCCCTCGGTCGAGTAAACAAATTTTCCTAATCTTTCTGTTCAAGCGCCATCTAC	0.759 RPM ratio (pull-down/input)

Sequence	binding signal
GATGATTGTTCTCCCAGCTGATGAATTGATGGGCTCGAGTAAACAAATTTTCCTAATCTTTCTGTTCAAGCGCCATCTAC	0.869 RPM ratio (pull-down/input)
GATGATTGTTCTCCCAGCTGATGAATTATTCTTCTCGAGTAAACAAATTTTCCTAATCTTTCTGTTCAAGCGCCATCTAC	1.03 RPM ratio (pull-down/input)
GATGATTGTTCTCCCAGCTGATGAATTATGGAGTTCGAGTAAACAAATTTTCCTAATCTTTCTGTTCAAGCGCCATCTAC	0.883 RPM ratio (pull-down/input)
GATGATTGTTCTCCCAGCTGATGAATTCAAGTTTTCGAGTAAACAAATTTTCCTAATCTTTCTGTTCAAGCGCCATCTAC	1.01 RPM ratio (pull-down/input)
GATGATTGTTCTCCCAGCTGATGAATTGACAACATCGAGTAAACAAATTTTCCTAATCTTTCTGTTCAAGCGCCATCTAC	2.29 RPM ratio (pull-down/input)
GATGATTGTTCTCCCAGCTGATGAATTGCCAATTTCGAGTAAACAAATTTTCCTAATCTTTCTGTTCAAGCGCCATCTAC	1.04 RPM ratio (pull-down/input)
GATGATTGTTCTCCCAGCTGATGAATTCAAGAGGTCGAGTAAACAAATTTTCCTAATCTTTCTGTTCAAGCGCCATCTAC	0.817 RPM ratio (pull-down/input)
GATGATTGTTCTCCCAGCTGATGAATTTGGTCATTCGAGTAAACAAATTTTCCTAATCTTTCTGTTCAAGCGCCATCTAC	1.01 RPM ratio (pull-down/input)
GATGATTGTTCTCCCAGCTGATGAATTCCGAGGGTCGAGTAAACAAATTTTCCTAATCTTTCTGTTCAAGCGCCATCTAC	0.691 RPM ratio (pull-down/input)
GATGATTGTTCTCCCAGCTGATGAATTAAAGCACTCGAGTAAACAAATTTTCCTAATCTTTCTGTTCAAGCGCCATCTAC	0.949 RPM ratio (pull-down/input)
GATGATTGTTCTCCCAGCTGATGAATTAATTTACTCGAGTAAACAAATTTTCCTAATCTTTCTGTTCAAGCGCCATCTAC	1.17 RPM ratio (pull-down/input)
GATGATTGTTCTCCCAGCTGATGAATTCGGGCAGTCGAGTAAACAAATTTTCCTAATCTTTCTGTTCAAGCGCCATCTAC	0.824 RPM ratio (pull-down/input)
GATGATTGTTCTCCCAGCTGATGAATTTACGGACTCGAGTAAACAAATTTTCCTAATCTTTCTGTTCAAGCGCCATCTAC	1 RPM ratio (pull-down/input)
GATGATTGTTCTCCCAGCTGATGAATTTGCTTGCTCGAGTAAACAAATTTTCCTAATCTTTCTGTTCAAGCGCCATCTAC	1.13 RPM ratio (pull-down/input)
GATGATTGTTCTCCCAGCTGATGAATTTCATGGTTCGAGTAAACAAATTTTCCTAATCTTTCTGTTCAAGCGCCATCTAC	0.885 RPM ratio (pull-down/input)
GATGATTGTTCTCCCAGCTGATGAATTTCGTGACTCGAGTAAACAAATTTTCCTAATCTTTCTGTTCAAGCGCCATCTAC	0.951 RPM ratio (pull-down/input)
GATGATTGTTCTCCCAGCTGATGAATTAAGAGGGTCGAGTAAACAAATTTTCCTAATCTTTCTGTTCAAGCGCCATCTAC	0.798 RPM ratio (pull-down/input)
GATGATTGTTCTCCCAGCTGATGAATTTGCGTTCTCGAGTAAACAAATTTTCCTAATCTTTCTGTTCAAGCGCCATCTAC	1.11 RPM ratio (pull-down/input)
GATGATTGTTCTCCCAGCTGATGAATTTCATAGTTCGAGTAAACAAATTTTCCTAATCTTTCTGTTCAAGCGCCATCTAC	0.871 RPM ratio (pull-down/input)
GATGATTGTTCTCCCAGCTGATGAATTGAGACCCTCGAGTAAACAAATTTTCCTAATCTTTCTGTTCAAGCGCCATCTAC	0.781 RPM ratio (pull-down/input)
